Experimental data as given in article PMC4336329 (PLoS ONE, 2015).
The whole screen tested about 310,000 compounds, of which about 2,200 (0.71%) showed an effect of 50% or more. The effect is printed as a negative number. Some of the results follow.

These compounds were tested against human ether-à-go-go-related gene (hERG) potassium channel (human, UniProt Q12809) (assay: primary screen, population patch clamp on CHO cells stably expressing hERG).
Chain of human ether-à-go-go-related gene (hERG) potassium channel (Q12809 whole entry, looked up): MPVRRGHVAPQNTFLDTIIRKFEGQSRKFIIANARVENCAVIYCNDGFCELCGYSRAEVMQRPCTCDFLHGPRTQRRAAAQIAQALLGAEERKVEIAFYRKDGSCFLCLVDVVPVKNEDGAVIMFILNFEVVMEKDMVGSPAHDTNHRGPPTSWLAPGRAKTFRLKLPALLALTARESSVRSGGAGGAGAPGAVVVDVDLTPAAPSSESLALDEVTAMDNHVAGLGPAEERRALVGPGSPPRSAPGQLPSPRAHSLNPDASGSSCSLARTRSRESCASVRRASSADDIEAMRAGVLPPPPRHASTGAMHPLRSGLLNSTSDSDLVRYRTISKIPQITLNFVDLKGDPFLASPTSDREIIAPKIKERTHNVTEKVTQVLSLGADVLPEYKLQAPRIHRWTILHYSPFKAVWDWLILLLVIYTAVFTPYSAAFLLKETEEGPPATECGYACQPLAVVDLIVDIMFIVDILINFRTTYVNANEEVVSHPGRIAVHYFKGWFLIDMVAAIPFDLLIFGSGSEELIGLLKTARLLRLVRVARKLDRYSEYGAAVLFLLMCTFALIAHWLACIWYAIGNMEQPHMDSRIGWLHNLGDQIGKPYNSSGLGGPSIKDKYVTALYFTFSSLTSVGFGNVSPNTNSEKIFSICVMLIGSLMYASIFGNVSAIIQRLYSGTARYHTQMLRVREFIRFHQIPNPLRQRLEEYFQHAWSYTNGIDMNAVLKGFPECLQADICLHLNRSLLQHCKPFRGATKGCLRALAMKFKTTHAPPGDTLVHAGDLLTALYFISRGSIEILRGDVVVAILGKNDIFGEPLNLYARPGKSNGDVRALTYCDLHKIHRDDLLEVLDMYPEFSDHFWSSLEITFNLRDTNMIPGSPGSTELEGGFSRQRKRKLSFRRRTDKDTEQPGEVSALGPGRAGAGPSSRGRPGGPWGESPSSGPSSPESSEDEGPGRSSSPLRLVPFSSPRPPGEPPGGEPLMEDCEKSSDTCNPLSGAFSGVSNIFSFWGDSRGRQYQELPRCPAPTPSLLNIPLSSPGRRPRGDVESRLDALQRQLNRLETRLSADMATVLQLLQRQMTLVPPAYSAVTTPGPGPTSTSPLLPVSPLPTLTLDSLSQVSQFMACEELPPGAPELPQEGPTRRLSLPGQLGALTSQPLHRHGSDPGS

Row | SMILES | hERG current change (%, negative = inhibition) at 1uM [%]
1 | CCOC(=O)C1(CCc2ccccc2)CCN(Cc2csc(C(C)=O)c2)CC1 | -33.6
2 | C=CCN1C(=O)C2(C(C(=O)c3ccc(C)o3)=C(O)C(=O)N2CCCN2CCOCC2)c2ccccc21 (centres unmarked) | 11.6
3 | COC(=O)c1ccc(CN(c2ccccc2OC)S(=O)(=O)c2cccs2)o1 | -0.741
4 | NC(=O)c1cc(S(=O)(=O)N2CCCC2)ccc1OCc1ccc(F)cc1 | 20
5 | N/C(=N\OC(=O)Nc1cccc(C(F)(F)F)c1)c1ccno1 | 9.72
6 | O=C(O)CCN=CC1=C(O)CC(c2ccccc2)CC1=O (centres unmarked) | 10.6
7 | C=CCn1c(SCCN2CCCC2)nc2c([nH]c3ccccc32)c1=O | -63.9
8 | CC(=O)c1c(C)nc(-c2ccc(Cl)cc2)nc1NC(=O)C(C)C | 10.5
9 | COc1ccccc1NC(=O)c1cc2cc(Br)ccc2cc1O | 17.7
10 | O=C(COC(=O)C1=COCCO1)Nc1ccc([N+](=O)[O-])cc1C(F)(F)F | 19.9
11 | CC1CCc2sc(C(=O)NNS(=O)(=O)c3ccc(F)c(F)c3F)cc2C1 (centres unmarked) | 19.1
12 | Cc1ccc(C(=O)N2CCN(c3ncccn3)CC2)o1 | 11.9
13 | CCCC(=O)Nc1ccc(C(=O)NNC(=O)c2cccc([N+](=O)[O-])c2)cc1 | 10.8
14 | CCCc1cc(C(=O)Nc2cc(C)on2)no1 | 18.6
15 | COc1ccc(C(=O)Cn2nnc(-c3ccccc3NC(=O)C3CCCCC3)n2)cc1 | 11.9
16 | CCn1c(SCC(=O)NCC(=O)Nc2ccc(F)cc2)nnc1-c1cccs1 | 2.96
17 | CC(Cl)C(=O)NNc1cccc(Cl)n1 (centres unmarked) | 12.7
18 | Cc1cccc(C)c1OCc1cc(C(=O)N2CCN(Cc3nccn3C)CC2)no1 | -19.1
19 | CCOC(=O)c1ccc(NS(=O)(=O)c2ccc(-c3coc(C)n3)cc2)cc1 | 21.6
20 | COc1ccc(OC)c(-c2cc(C(=O)NC3CCCC3)c3ccccc3n2)c1 | -13.9
21 | Cc1cc(C(=O)NC2Cc3ccccc3C2)c(C)o1 | 8.98
22 | N#C/C(=C(/O)C(Cl)(Cl)Cl)c1nc2ccccc2[nH]1 | 11.3

Row | SMILES | hERG current change (%, negative = inhibition) at 1uM [%]
23 | Cc1cc(C)n(CC(O)COc2ccccc2)n1 (centres unmarked) | 9.07
24 | CCOC(=O)N1CCC(N(CCOC)C(=S)Nc2cccc(SC)c2)CC1 | 3.27
25 | O=C(NC1CCCc2ccccc21)c1ccc2c(c1)OCO2 (centres unmarked) | 11.9
26 | CCOC(=O)/C=C/C(=O)Nc1cccc([N+](=O)[O-])c1 | 3.24
27 | O=C(O)C1CCCCC1C(=O)Nc1nccs1 (centres unmarked) | 7.1
28 | CCN(CC)S(=O)(=O)c1cccc(C(=O)NCC(=O)OCC(=O)NCc2ccccc2)c1 | 6.69
29 | COc1ccc(C2CC(c3ccc(OC)cc3O)=NN2C(=O)c2ccccc2)cc1 (centres unmarked) | 6.36
30 | COc1ccc(C2CC(c3cccs3)=NN2C(=O)c2ccc(Br)o2)cc1 (centres unmarked) | 13.5
31 | O=C(Nc1ccc(Cl)cc1C(=O)c1ccccc1)c1ccco1 | 3.75
32 | CCOc1oc(-c2ccc(OC)cc2)nc1C(F)(F)F | 2.69
33 | O=C(CNC(=O)c1ccc(Br)o1)NC12CC3CC(CC(C3)C1)C2 | 15.5
34 | COc1ccc(N2CCN(C(=O)CCNS(=O)(=O)c3ccccc3)CC2)cc1 | 7.07
35 | Cc1ccc(NCN2C(=O)C3C4CCC(C4)C3C2=O)cc1 (centres unmarked) | 5.44
36 | Nc1cc(S(=O)(=O)Nc2ccccc2Cl)ccc1N1CCOCC1 | 10.5
37 | Cc1ccc(S(=O)(=O)N(C)C)cc1NC(=O)C1CCCN(C(=O)c2ccc(Cl)cc2)C1 (centres unmarked) | 6.71
38 | O=C(O)C(=O)O.O=S(=O)(c1cccc(Cl)c1Cl)N1CCN(C(=S)NCCCN2CCOCC2)CC1 | 4.1
39 | CC1Cc2cc(/C(O)=C3/C(=O)C(=O)N(CCN4CCOCC4)C3c3ccc([N+](=O)[O-])cc3)ccc2O1 (centres unmarked) | 1.31
40 | Cc1cccnc1NC(=O)CNC(=O)c1sc2ccccc2c1Cl | 14.8
41 | CCN1CCN(c2ccc(S(=O)(=O)N3CCCCC3)cc2NC(=O)c2cccc(C)c2)CC1 | -6.04
42 | COc1ccc(S(=O)(=O)Nc2cccc(-n3cnnn3)c2)cc1 | -0.952
43 | CCN1CCN(C(=O)CN(C)S(=O)(=O)c2ccc(OC)c(C)c2)CC1 | -6.54
44 | COc1ccccc1C1NC(=O)NC(C)=C1C(C)=O (centres unmarked) | -6.11
